This is one part of the list. At the low end of the ranking the order means little.
Target: SIX1 homeodomain (reference allele) (UniProt Q15475)
Assay: universal protein binding microarray
Conditions: Universal all-10-mer PBM (8x60K, AMADID 030236), 300 nM GST-tagged protein, Alexa Fluor 488 anti-GST; buffer, salt, pH and temperature not stated; high values mean tight binding; most listed sequences are background and not binding sites; double strand, one strand shown

Row | Sequence | binding signal [E-score]
1 | ATCTAAGA | 0.115
2 | CGGGTTCC | 0.141
3 | GGAGATTA | 0.197
4 | CATGTCGG | -0.0307
5 | ATTCAGGA | 0.0546
6 | CTTGCGGC | -0.163
7 | ATACCGCA | 0.406
8 | GCCTCTCA | -0.223
9 | CGTAGCAG | -0.0217
10 | CCTACCAA | -0.0401
11 | AGTGCCTG | -0.312
12 | AGATTTCG | -0.202
13 | GGTGTGGA | 0.275
14 | CGGTCATC | 0.102
15 | AAACTATT | -0.0843
16 | CGGGGGGC | -0.0362
17 | CTTCAAGA | -0.239
18 | CATGCATG | 0.124
19 | GACTACCC | -0.0809
20 | GAGGTGCC | -0.216
21 | CCCATGCG | -0.0695
22 | AATATCGT | 0.309

Row | Sequence | binding signal [E-score]
23 | CGAATAAA | -0.196
24 | ACACTTTA | 0.0206
25 | AGAATTCA | -0.181
26 | CTCGCCAA | -0.253
27 | CTGACGGC | -0.0186
28 | AACCTGTC | -0.118
29 | ACCGGACG | 0.0115
30 | ACCGATAA | 0.0442
31 | CTGGGTCA | 0.0912
32 | ACAGCGGA | 0.0507
33 | CGAAAGCC | -0.244
34 | CGGGGTGC | 0.058
35 | CATTGCCA | -0.178
36 | ACAGCCCG | -0.17
37 | TAACCAAA | -0.213
38 | CCACAGTA | 0.0344
39 | CCACTCTA | -0.142
40 | CACATTAA | -0.0436
41 | TATACTAA | 0.127
42 | ATAAATGA | 0.0885
43 | ATTCCCGG | 0.0727
44 | CACGTGGG | -0.048

Row | Sequence | binding signal [E-score]
45 | GAAAATAC | 0.0716
46 | GTAGTCCA | -0.147
47 | GCGGGATA | 0.349
48 | CGCGACGC | -0.157
49 | AGTGCCCG | -0.124
50 | CTGACGAC | -0.185
51 | AGCCTTAG | -0.0156
52 | ACGAAGAT | -0.0283
53 | ATACAGGG | 0.295
54 | CCCCCGGG | -0.205
55 | AATAGAAG | -0.149
56 | CTATCTGA | 0.231
57 | CATCGGAA | 0.00832
58 | AGATGTCA | -0.0406
59 | CAAGGATC | 0.351
60 | CGGTACCA | 0.0128
61 | GCATTAAA | -0.114
62 | CATGGCAC | -0.02
63 | GCATTGGC | -0.118
64 | CGCTTTCC | -0.225
65 | GACAAGGA | 0.0343
66 | CCTTTTGC | -0.0617

Row | Sequence | binding signal [E-score]
67 | AATGACCC | 0.0525
68 | AGAAGGAC | -0.109
69 | CGATGCGA | 0.104
70 | ACCAGAGT | -0.0917
71 | ACGCTGGG | -0.133
72 | ACCAATCC | 0.0833
73 | CGCAACAA | -0.351
74 | ACTGATAT | 0.442
75 | AGTCCTAA | -0.273
76 | GTCACTTA | 0.0691
77 | AGACCGTC | -0.0103
78 | CAAAATAC | 0.0728
79 | CTCAGCTA | -0.117
80 | CTGTGAGC | 0.0561
81 | AGCATTGC | -0.119
82 | ACTATCGC | 0.236
83 | CTGGCCCA | -0.286
84 | ACTCATGC | 0.00969
85 | TAGACTAA | -0.0876
86 | GCGATTTA | -0.0974
87 | ATCCGAAG | 0.186
88 | AGAAAGGA | -0.0443

Row | Sequence | binding signal [E-score]
89 | GACTCACC | -0.132
90 | GGTTCGCA | 0.0489
91 | ATCGCATC | 0.327
92 | ATAATGCA | 0.118
93 | AATCTCAC | 0.0604
94 | CGACACTA | 0.0163
95 | AATACGTC | 0.205
96 | CCATAGCA | -0.0149
97 | TATTCCGA | 0.0657
98 | AGAGTAAC | -0.196
99 | CTCAGGCA | -0.0622
100 | ACTGTGCT | -0.179
101 | TAACCGGA | 0.0932
102 | ATTAAAAG | -0.0997
103 | CTTAGGTC | 0.0219
104 | AACCTTAG | -0.00982
105 | CAATTCTC | -0.0737
106 | CACTCTCA | 0.0181
107 | ACTAGTAC | 0.0353
108 | TCTAAAGA | -0.0807
109 | ATGGCAGC | -0.117

Reference: PMC10668032
